# Measurements reported in the supplement of paper PMC8728848.
# The list shows a part of the results.
# B1: CC1G-10077 (Coprinopsis cinerea), A8NDT7 (protein)
# chain: MALNEGVYWIRNSRFTNKVLDLDAANVAKGTSILDFNEHGTFNENHNQLWIVERFQSRDTYLIRSVHSNLVLDLSQGLSANGTPILCWTQHGGTNQQWRIEWVKDDNKTPLYRIVSVATGTAISHNEDDSSAYTVAWSVDDGPKQLWSFDPFVTPLLYRLRVKSTSRVLDLAAASADNGTLALAWEQHTAITKRNQLWWLPYRSGAEEYTIQCLETSTVADLSGGNSGNGTPIYGWQSHGGRNQQWKFEPTSDSGDYYHIKNVEGGSVMDAYMNDSQKRVGGWSNNGGDNQKWLLDPLPSPGPGWVLIQNGGTGKFLCSTPSGDIGTADGPETVYDYSVQWRFIQREYTGVYHVVNRATGAYLRQIGTSMPSIGLAEENDDELKDWWMLETYDNSEIGLASIISRWTGNVLDHYGGVSVQALDNNTENSYRSWAIIPARDWLTSFSLVNGQGGLCLAAQYAREETRLSTTANVNDFHAQWVFRKPSGSSGYTIQNKYNNHYVGGTSARWELVVCCNKYFGIRNTSTQKYLAIEDGQVTFQDQDMTDRKQCWELCSGRATDTSGNDYDLIYMDDDLLEVMIPWVGDKQGDLKHYIEKRATKKPPKDKGGWQLPAAGLIKKPKFNDIRQLLQELIEQWEWDVVNEEREQIQTLVSIDEAEARRLLGRRPHPDIVAAYQRSRSSTLFRIDRQGYFNIAGDRYVNIQGQYGDDSYFHIALPVGVRFGREQIRRFLRDSLDRSTSVTITPTTCKPPSGGPDYNRDPDSDGDNSWIKWTIAVVGTSAIKHSEL
# What was measured:
# Experiment in all cases: glycan array binding signal (z-score within array); higher = stronger binding
# Details in all cases: glycan notation: IUPAC condensed, linker removed
# [1] = molecular target: Gal(b1-4)GlcNAc(b1-3)Gal(b1-4)GlcNAc(b1-2)Man(a1-3)[Gal(b1-4)GlcNAc(b1-3)Gal(b1-4)GlcNAc(b1-2)Man(a1-6)]Man(b1-4)GlcNAc(b1-4)[Fuc(a1-6)]GlcNAc
# Outline: (§1)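 From the Consortium for Functional Glycomics database, 3228 arrays were curated, keeping only those whose protein sequence was available. Binding is given as a within-array Z-score averaged across arrays sharing a protein sequence and across linkers. Negative Z-scores can be read as non-binding.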
# [2] = molecular target: Gal(b1-4)GlcNAc(b1-3)Gal(b1-4)GlcNAc(b1-2)[Gal(b1-4)GlcNAc(b1-3)Gal(b1-4)GlcNAc(b1-6)]Man(a1-6)[Gal(b1-4)GlcNAc(b1-3)Gal(b1-4)GlcNAc(b1-2)Man(a1-3)]Man(b1-4)GlcNAc(b1-4)GlcNAc
# Outline: as §1
# [3] = molecular target: Gal(b1-4)GlcNAc(b1-3)Gal(b1-4)GlcNAc(b1-2)[Gal(b1-4)GlcNAc(b1-3)Gal(b1-4)GlcNAc(b1-6)]Man(a1-6)[Gal(b1-4)GlcNAc(b1-3)Gal(b1-4)GlcNAc(b1-2)Man(a1-3)]Man(b1-4)GlcNAc(b1-4)[Fuc(a1-6)]GlcNAc
# Outline: as §1
# [4] = molecular target: Gal(b1-4)GlcNAc(b1-3)Gal(b1-4)GlcNAc(b1-3)Gal(b1-4)GlcNAc
# Outline: as §1
# [5] = molecular target: Gal(b1-4)GlcNAc(b1-3)Gal(b1-4)GlcNAc(b1-3)Gal(b1-4)GlcNAc(b1-2)Man(a1-3)[Gal(b1-4)GlcNAc(b1-3)Gal(b1-4)GlcNAc(b1-3)Gal(b1-4)GlcNAc(b1-2)Man(a1-6)]Man(b1-4)GlcNAc(b1-4)GlcNAc
# Outline: as §1
# [6] = molecular target: Gal(b1-4)GlcNAc(b1-3)Gal(b1-4)GlcNAc(b1-3)Gal(b1-4)GlcNAc(b1-2)Man(a1-3)[Gal(b1-4)GlcNAc(b1-3)Gal(b1-4)GlcNAc(b1-3)Gal(b1-4)GlcNAc(b1-2)Man(a1-6)]Man(b1-4)GlcNAc(b1-4)[Fuc(a1-6)]GlcNAc
# Outline: as §1
# [7] = molecular target: Gal(b1-4)GlcNAc(b1-3)Gal(b1-4)GlcNAc(b1-3)Gal(b1-4)GlcNAc(b1-2)[Gal(b1-4)GlcNAc(b1-3)Gal(b1-4)GlcNAc(b1-3)Gal(b1-4)GlcNAc(b1-6)]Man(a1-6)[Gal(b1-4)GlcNAc(b1-3)Gal(b1-4)GlcNAc(b1-3)Gal(b1-4)GlcNAc(b1-2)Man(a1-3)]Man(b1-4)GlcNAc(b1-4)[Fuc(a1-6)]GlcNAc
# Outline: as §1
# [8] = molecular target: Gal(b1-4)GlcNAc(b1-3)Gal(b1-4)GlcNAc(b1-3)Gal(b1-4)GlcNAc(b1-3)Gal(b1-4)GlcNAc(b1-2)Man(a1-3)[Gal(b1-4)GlcNAc(b1-3)Gal(b1-4)GlcNAc(b1-3)Gal(b1-4)GlcNAc(b1-3)Gal(b1-4)GlcNAc(b1-2)Man(a1-6)]Man(b1-4)GlcNAc(b1-4)GlcNAc
# Outline: as §1
# [9] = molecular target: Gal(b1-4)GlcNAc(b1-3)Gal(b1-4)GlcNAc(b1-3)Gal(b1-4)GlcNAc(b1-3)Gal(b1-4)GlcNAc(b1-2)Man(a1-3)[Gal(b1-4)GlcNAc(b1-3)Gal(b1-4)GlcNAc(b1-3)Gal(b1-4)GlcNAc(b1-3)Gal(b1-4)GlcNAc(b1-2)Man(a1-6)]Man(b1-4)GlcNAc(b1-4)[Fuc(a1-6)]GlcNAc
# Outline: as §1
# [10] = molecular target: Gal(b1-4)GlcNAc(b1-3)Gal(b1-4)GlcNAc(b1-3)Gal(b1-4)GlcNAc(b1-3)Gal(b1-4)GlcNAc(b1-2)[Gal(b1-4)GlcNAc(b1-3)Gal(b1-4)GlcNAc(b1-3)Gal(b1-4)GlcNAc(b1-3)Gal(b1-4)GlcNAc(b1-6)]Man(a1-6)[Gal(b1-4)GlcNAc(b1-3)Gal(b1-4)GlcNAc(b1-3)Gal(b1-4)GlcNAc(b1-3)Gal(b1-4)GlcNAc(b1-2)Man(a1-3)]Man(b1-4)GlcNAc(b1-4)[Fuc(a1-6)]GlcNAc
# Outline: as §1
# [11] = molecular target: Gal(b1-4)GlcNAc(b1-3)Gal(b1-4)GlcNAc(b1-3)Gal(b1-4)GlcNAc(b1-3)Gal(b1-4)GlcNAc(b1-3)Gal(b1-4)GlcNAc(b1-2)Man(a1-3)[Gal(b1-4)GlcNAc(b1-3)Gal(b1-4)GlcNAc(b1-3)Gal(b1-4)GlcNAc(b1-3)Gal(b1-4)GlcNAc(b1-3)Gal(b1-4)GlcNAc(b1-2)Man(a1-6)]Man(b1-4)GlcNAc(b1-4)GlcNAc
# Outline: as §1
# [12] = molecular target: Gal(b1-4)GlcNAc(b1-3)Gal(b1-4)GlcNAc(b1-3)Gal(b1-4)GlcNAc(b1-3)Gal(b1-4)GlcNAc(b1-3)Gal(b1-4)GlcNAc(b1-2)Man(a1-3)[Gal(b1-4)GlcNAc(b1-3)Gal(b1-4)GlcNAc(b1-3)Gal(b1-4)GlcNAc(b1-3)Gal(b1-4)GlcNAc(b1-3)Gal(b1-4)GlcNAc(b1-2)Man(a1-6)]Man(b1-4)GlcNAc(b1-4)[Fuc(a1-6)]GlcNAc
# Outline: as §1
# [13] = molecular target: Gal(b1-4)GlcNAc(b1-3)Gal(b1-4)GlcNAc(b1-3)Gal(b1-4)GlcNAc(b1-3)Gal(b1-4)GlcNAc(b1-3)Gal(b1-4)GlcNAc(b1-2)[Gal(b1-4)GlcNAc(b1-3)Gal(b1-4)GlcNAc(b1-3)Gal(b1-4)GlcNAc(b1-3)Gal(b1-4)GlcNAc(b1-3)Gal(b1-4)GlcNAc(b1-6)]Man(a1-6)[Gal(b1-4)GlcNAc(b1-3)Gal(b1-4)GlcNAc(b1-3)Gal(b1-4)GlcNAc(b1-3)Gal(b1-4)GlcNAc(b1-3)Gal(b1-4)GlcNAc(b1-2)Man(a1-3)]Man(b1-4)GlcNAc(b1-4)[Fuc(a1-6)]GlcNAc
# Outline: as §1
# [14] = molecular target: Gal(b1-4)GlcNAc(b1-3)Gal(b1-4)GlcNAc(b1-3)Gal(b1-4)GlcNAc(b1-3)Gal(b1-4)GlcNAc(b1-3)Gal(b1-4)GlcNAc(b1-3)Gal(b1-4)GlcNAc(b1-2)Man(a1-3)[Gal(b1-4)GlcNAc(b1-3)Gal(b1-4)GlcNAc(b1-3)Gal(b1-4)GlcNAc(b1-3)Gal(b1-4)GlcNAc(b1-3)Gal(b1-4)GlcNAc(b1-3)Gal(b1-4)GlcNAc(b1-2)Man(a1-6)]Man(b1-4)GlcNAc(b1-4)GlcNAc
# Outline: as §1
# [15] = molecular target: Gal(b1-4)GlcNAc(b1-3)Gal(b1-4)GlcNAc(b1-3)GalNAc
# Outline: as §1
# [16] = molecular target: Gal(b1-4)GlcNAc(b1-3)Gal(b1-4)GlcNAc(b1-3)[Gal(b1-4)GlcNAc(b1-3)Gal(b1-4)GlcNAc(b1-6)]GalNAc
# Outline: as §1
# [17] = molecular target: Gal(b1-4)GlcNAc(b1-3)Gal(b1-4)GlcNAc(b1-6)[Gal(b1-3)]GalNAc
# Outline: as §1
# [18] = molecular target: Gal(b1-4)GlcNAc(b1-3)Gal(b1-4)[Fuc(a1-3)]GlcNAc(b1-3)Gal(b1-4)[Fuc(a1-3)]GlcNAc
# Outline: as §1
# [19] = molecular target: Gal(b1-4)GlcNAc(b1-3)GalNAc
# Outline: as §1
# [20] = molecular target: Gal(b1-4)GlcNAc(b1-3)[Fuc(a1-3)GlcNAc(b1-6)]Gal(b1-4)Glc
# Outline: as §1
# [21] = molecular target: Gal(b1-4)GlcNAc(b1-3)[Gal(b1-4)GlcNAc(b1-6)]Gal(b1-4)GlcNAc
# Outline: as §1
# [22] = molecular target: Gal(b1-4)GlcNAc(b1-3)[GlcNAc(b1-6)]Gal(b1-4)GlcNAc
# Outline: as §1
# [23] = molecular target: Gal(b1-4)GlcNAc(b1-6)Gal(b1-4)GlcNAc
# Outline: as §1
# [24] = molecular target: Gal(b1-4)GlcNAc(b1-6)GalNAc
# Outline: as §1
# [25] = molecular target: Gal(b1-4)GlcNAc(b1-6)[Gal(b1-3)]GalNAc
# Outline: as §1
# [26] = molecular target: Gal(b1-4)GlcNAc(b1-6)[Gal(b1-4)GlcNAc(b1-3)]GalNAc
# Outline: as §1
# Gal(b1-4)GlcNAc6P = molecular target: Gal(b1-4)GlcNAc6P
# Outline: as §1
# Gal(b1-6)Gal = molecular target: Gal(b1-6)Gal
# Outline: as §1
# Gal3S(b1-3)GalNAc = molecular target: Gal3S(b1-3)GalNAc
# Outline: as §1
# Gal3S(b1-3)GlcNAc = molecular target: Gal3S(b1-3)GlcNAc
# Outline: as §1
binder,measurement,setting,value
B1,glycan array binding signal (z-score),[1],2.68
same,glycan array binding signal (z-score),[2],1.49
same,glycan array binding signal (z-score),[3],2.43
same,glycan array binding signal (z-score),[4],0.893
same,glycan array binding signal (z-score),[5],2.19
same,glycan array binding signal (z-score),[6],3.5
same,glycan array binding signal (z-score),[7],3.22
same,glycan array binding signal (z-score),[8],2.97
same,glycan array binding signal (z-score),[9],3.19
same,glycan array binding signal (z-score),[10],2.98
same,glycan array binding signal (z-score),[11],3.72
same,glycan array binding signal (z-score),[12],3.04
same,glycan array binding signal (z-score),[13],3.25
same,glycan array binding signal (z-score),[14],1.06
same,glycan array binding signal (z-score),[15],0.656
same,glycan array binding signal (z-score),[16],0.93
same,glycan array binding signal (z-score),[17],0.529
same,glycan array binding signal (z-score),[18],1.72
same,glycan array binding signal (z-score),[19],0.365
same,glycan array binding signal (z-score),[20],0.973
same,glycan array binding signal (z-score),[21],1.18
same,glycan array binding signal (z-score),[22],3.85
same,glycan array binding signal (z-score),[23],2.58
same,glycan array binding signal (z-score),[24],1.43
same,glycan array binding signal (z-score),[25],1.64
same,glycan array binding signal (z-score),[26],1.48
same,glycan array binding signal (z-score),Gal(b1-4)GlcNAc6P,-0.313
same,glycan array binding signal (z-score),Gal(b1-6)Gal,-0.389
same,glycan array binding signal (z-score),Gal3S(b1-3)GalNAc,-0.424
same,glycan array binding signal (z-score),Gal3S(b1-3)GlcNAc,-0.597
